In PubChem BioAssay AID624417 (National Center for Advancing Translational Sciences (NCATS), 2012):
“And” between values parts separate entries of the source, which are not always exact repeats. Equal entries are not always repeated. Out of some 410,000 compounds screened, about 6,400 (1.6%) were called active. This list was built around the results that the source calls inconclusive (neither active nor inactive); the mix of calls is not that of the screen. Calls follow the shape of the dose curve; as a rule, active = well fitted inhibition curve with a large enough effect; inconclusive = small, poorly fitted or top-dose-only effect; inactive = no such curve, though single readings can be large or run the other way. Potencies beside an inconclusive call are fits to weak or partial responses and may not hold up.

Each compound was assayed against Glucagon-like peptide 1 receptor (Homo sapiens) (UniProt P43220) (assay: qHTS of GLP-1 Receptor Inverse Agonists (Inhibition Mode)). Conditions: HEK293 GLP-1R CRE-luciferase, luminescence, 24 h, GLP-1R form is constitutively active; activity change, negative = inhibition: at 38.3 µM (top of the series) unless noted.
Sequence of UniProt P43220 (P43220 whole entry, looked up): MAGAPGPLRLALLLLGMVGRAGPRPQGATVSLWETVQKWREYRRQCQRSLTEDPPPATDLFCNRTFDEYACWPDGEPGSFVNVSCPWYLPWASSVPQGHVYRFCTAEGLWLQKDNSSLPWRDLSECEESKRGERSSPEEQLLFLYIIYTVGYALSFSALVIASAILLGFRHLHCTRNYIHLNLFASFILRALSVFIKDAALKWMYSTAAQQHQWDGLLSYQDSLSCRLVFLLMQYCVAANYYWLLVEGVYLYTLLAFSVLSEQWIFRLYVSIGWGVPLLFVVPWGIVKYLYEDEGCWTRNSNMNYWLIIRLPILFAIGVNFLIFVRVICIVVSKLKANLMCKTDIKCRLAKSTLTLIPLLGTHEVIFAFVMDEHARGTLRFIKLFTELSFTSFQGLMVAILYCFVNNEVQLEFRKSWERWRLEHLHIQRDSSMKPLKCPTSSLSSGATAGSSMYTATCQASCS
Method in brief: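 Readout was luciferase luminescence, measured 12 min after detection reagent at room temperature. Beforehand, GLP-1R reporter HEK293 cells had sat 12 h, then received compounds for 24 hr at 37 deg C.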
% is scaled to controls: 0 for no effect and ±100 for the full control effect; potency is read from the fitted curve at half-maximal effect; tags tell the direction and shape of the fitted curve.
Also: nearly all actives have a fitted effect of over 55% in size.

| Structure (SMILES) | Potency | activity change, negative = inhibition |
| --- | --- | --- |
| CSc1cccc(NC(=O)CC(c2cccs2)N2Cc3ccccc3C2=O)c1 (centres undefined) | inconclusive: 28.2 µM [inhibitor, single point] | – |
| CCOC(=O)C1=C(C)NC(C)=C(C(=O)OCC)C1/C=C/c1ccccc1OC | inconclusive: 10 µM [inhibitor, partial curve] | – |
| O=S(=O)(c1ccccc1)N1CCN=C1SCc1cccc(Cl)c1 | inconclusive: 28.2 µM [inhibitor, single point] | – |
| CC(c1ccon1)N(C)C(=O)CCc1nnc(CCCCc2ccccc2)o1 (centres undefined) | inactive | – |
| CCN1CCCC1CN(Cc1cc2ccc(C)cc2[nH]c1=O)C(=S)Nc1ccc(OC)cc1OC (centres undefined) | inconclusive: 28.2 µM [inhibitor, single point] | – |
| Cc1ccc(CN2CCCn3nc(C(=O)NCc4ccc(OC(C)C)cc4)cc3C2=O)cc1 | inconclusive: 11.2 µM [inhibitor, partial curve, poor fit] | – |
| Nc1ccc2nc(SCC(=O)Nc3ccc(N4CCOCC4)c(Cl)c3)sc2c1 | inconclusive: 3.16 µM [inhibitor, partial curve, poor fit] | – |
| O=S(=O)(NCCCSc1ccccc1)c1ccccc1F | inconclusive: 10 µM [inhibitor, partial curve, poor fit] | – |
| CNC(=S)NCc1ccc2[nH]c3c(c2c1)CCCC3 | inactive | – |
| Cc1cc(C)cc(NC(=O)C(Nc2ccccc2)c2ccccc2)c1 (centres undefined) | inconclusive: 28.2 µM [inhibitor, single point] | – |
| NS(=O)(=O)c1ccc(NC(=O)c2cccc3ccccc23)cc1 | inconclusive: 3.16 µM [inhibitor, partial curve] | – |
| CCN(CC)CCNC(=O)c1cc(-c2ccc(Br)s2)nc2ccccc12 | inconclusive: 10 µM [inhibitor, partial curve, poor fit] and inconclusive: 7.94 µM [inhibitor, partial curve, poor fit] | – |
| Cc1ccccc1OCC(=O)Nc1ccccc1-c1ccccc1NC(=O)COc1ccccc1C | inconclusive: 12.6 µM [inhibitor, single point] | – |
| Cc1nc(-n2nc(C)c(Cc3ccc4c(c3)OCO4)c2C)sc1C(=O)Nc1cccc(Cl)c1 | inactive | – |
| S=C(NN=Cc1ccccn1)Nc1ccccn1 | inconclusive: 1 µM [inhibitor, full curve, poor fit] | – |
| N#C/C(=C\c1cccc(Br)c1)C(=O)N1CCCCC1 | inconclusive: 8.91 µM [inhibitor, single point] | – |
| O=C(OCc1cn([C@@H]2C[C@H](c3ccc(Cl)cc3)N(C(=O)C3CCCCC3)C[C@H]2O)nn1)c1ccccc1 | inconclusive: 11.2 µM [inhibitor, partial curve, poor fit] | – |
| Cc1ccccc1-c1ncc(CN2CCC(CO)(CCCc3ccccc3)CC2)cn1 | inconclusive: 22.4 µM [inhibitor, single point] | – |
| CCCc1cc(=O)oc2cc(OCC(=O)NCCCn3ccnc3)c(Cl)cc12 | inconclusive: 3.16 µM [inhibitor, partial curve] | – |
| COc1ccc(NC(=O)c2ccccn2)cc1 | inconclusive: 4.47 µM [inhibitor, partial curve] | – |

| Structure (SMILES) | Potency | activity change, negative = inhibition |
| --- | --- | --- |
| O=Cc1ccc(OCc2cccc(C(F)(F)F)c2)cc1O | inconclusive: 10 µM [inhibitor, partial curve, poor fit] | – |
| C[C@H](CO)N1C[C@H](C)[C@@H](CN(C)C)Oc2c(NC(=O)Cc3ccccc3)cccc2C1=O | inactive | – |
| CSc1ccc(CCNC(=O)c2ccc3c(c2)nc2n3CCCCC2)cc1 | inconclusive: 28.2 µM [inhibitor, single point] | – |
| Cc1cc(OCC(=O)Nc2sc3c(c2C#N)CC(C)(C)NC3(C)C)c(C(C)C)cc1Cl | inconclusive: 2.24 µM [inhibitor, full curve] | – |
| O=C(CSc1nccn1-c1ccc(Cl)cc1)Nc1cccc2ccccc12 | inconclusive: 28.2 µM [inhibitor, single point] | – |
| CCOc1cc(C)c(Cl)cc1S(=O)(=O)NC1CC(C)(C)NC(C)(C)C1 | inconclusive: 8.91 µM [inhibitor, partial curve, poor fit] | – |
| CCOC(=O)c1c(C)[nH]c(C)c1S(=O)(=O)NCCc1sccc1C | inconclusive: 28.2 µM [inhibitor, single point] | – |
| CCCc1nc2scc(-c3ccc(C)cc3)c2c(=O)n1N | inconclusive: 11.2 µM [inhibitor, single point] | – |
| CCOC(=O)C(Cc1ccccc1)(Cc1ccccc1)C(C)=O | – | inconclusive: -66.2% [inhibitor] |
| COc1ccc(C(=O)C(C)OC(=O)c2cccc(S(=O)(=O)Nc3cc(Cl)c(OC)cc3OC)c2)cc1 (centres undefined) | inconclusive: 4.47 µM [inhibitor, full curve] | – |
| COc1ccc(-c2coc3c(C(=O)NCc4cccc(Cl)c4)cccc23)c(C)c1 | inconclusive: 7.94 µM [inhibitor, partial curve, poor fit] | – |
| O=C(Nc1nc(-c2ccccn2)cs1)c1ccc(-c2ccccc2F)o1 | inconclusive: 11.2 µM [inhibitor, single point] | – |
| Nc1cc(S(=O)(=O)Nc2ccccc2Cl)ccc1N1CCCC1 | inconclusive: 10 µM [inhibitor, single point] | – |
| CC(CCc1ccccc1)NC(=O)Cn1c(=O)nc(-c2ccccc2F)c2cc(Cl)ccc21 (centres undefined) | inactive | – |
| CN1c2ccccc2-c2nc3ccccc3n2C1c1cccs1 (centres undefined) | inconclusive: 14.1 µM [inhibitor, partial curve, poor fit] | – |
| Cc1ccc2nc3n(c(=O)c2c1)-c1cc2ccccc2cc1C(=O)NC3Cc1ccccc1 (centres undefined) | inconclusive: 5.62 µM [inhibitor, full curve, poor fit] | – |
| O=C(Nc1ccc(Br)c2ccccc12)c1ccc2ccccc2c1O | inconclusive: 7.08 µM [inhibitor, partial curve, poor fit] | – |
| CC(C)Nc1nc(-c2ccccc2F)c2sc(-c3ccccc3)cc2n1 | inconclusive: 28.2 µM [inhibitor, single point] | – |
| CCCOc1ccc(/C=C/c2c([N+](=O)[O-])c(=O)n(C)c(=O)n2C)cc1 | inconclusive: 6.31 µM [inhibitor, partial curve, poor fit] | – |
